Reference: PubChem BioAssay (NCI)
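How tested: cells in 96-well plates exposed to compound for 48 hours at five concentrations. Here, GI50 denotes the concentration required for 50% inhibition of growth.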 For part of its entries the source gives two or more results. The other results are left out here. There may be further records. The tests behind the records often covered other concentration ranges, not given here; some values may only mark the edge of a range.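 At the TGI there is no net growth.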 What stands in brackets tells the records apart. Letters hold for one entry only.

Tests used:
Experiment in all cases: DTP human tumour cell line panel, 48 h
[1] = test system: MOLT-4 leukemia
[2] = test system: NCI-H522 lung
[3] = test system: RXF 393 renal
[4] = test system: SF-295 CNS
[5] = test system: CAKI-1 renal
[6] = test system: SF-539 CNS
[7] = test system: M14 melanoma
[8] = test system: KM12 colon
[9] = test system: NCI-H460 lung
[10] = test system: OVCAR-3 ovarian
[11] = test system: NCI-H23 lung
[12] = test system: UACC-62 melanoma
[13] = test system: RPMI-8226 leukemia
[14] = test system: MDA-N
[15] = test system: SF-268 CNS
[16] = test system: SK-MEL-2 melanoma
[17] = test system: UO-31 renal
[18] = test system: XF 498 CNS
[19] = test system: SK-MEL-5 melanoma
[20] = test system: K-562 leukemia
[21] = test system: DMS 273 small cell lung
[22] = test system: EKVX NSCLC
[23] = test system: U251 CNS
[24] = test system: HCT-116 colon
[25] = test system: SW-620 colon
[26] = test system: SN12C renal
[27] = test system: LOX IMVI melanoma
[28] = test system: LXFL 529 NSCLC
[29] = test system: HOP-92 NSCLC
[30] = test system: OVCAR-5 ovarian
[31] = test system: SK-OV-3 ovarian

COc1cccc2c1C(=O)c1c(O)c3c(c(O)c1C2=O)C[C@@](O)(C(C)=O)C[C@@H]3OC1CC(N)C(O)C(C)O1 (stereo partly drawn)
TGI [1]: 304 nM, 99.2 nM, 384 nM, > 5.01 µM | TGI [2]: 336 nM, > 5.01 µM [sample A, 1 test] and 204 nM, 309 nM [sample A, mean of 2 tests] and 283 nM [sample A, mean of 39 tests] and 358 nM [sample A, mean of 62 tests] and 175 nM [sample B, mean of 2 tests] | TGI [3]: > 50 µM [sample A, 1 test] and 539 nM, 500 nM, 453 nM [sample A, mean of 2 tests] and 435 nM [sample A, mean of 35 tests] and 774 nM [sample A, mean of 59 tests] and 547 nM [sample B, mean of 2 tests] | TGI [4]: > 5.01 µM [sample A, 1 test] and 417 nM, 191 nM [sample A, mean of 2 tests] and 508 nM [sample A, mean of 40 tests] and 556 nM [sample A, mean of 71 tests] and 156 nM [sample B, mean of 2 tests] | TGI [5]: 1.96 µM, 25.3 µM, 223 nM, 1.21 µM, 17.8 µM | TGI [6]: 376 nM, 381 nM, 386 nM, 194 nM, 396 nM, > 5.01 µM [sample A] and 367 nM [sample B] | TGI [7]: > 5.01 µM [sample A, 1 test] and 698 nM [sample A, mean of 12 tests] and 1.34 µM, 1.19 µM, 465 nM [sample A, mean of 2 tests] and 943 nM [sample A, mean of 71 tests] and 524 nM [sample B, mean of 2 tests] | TGI [8]: > 5.01 µM [sample A, 1 test] and 3.1 µM, 1.05 µM, 514 nM [sample A, mean of 2 tests] and 2.29 µM [sample A, mean of 38 tests] and 2.42 µM [sample A, mean of 70 tests] and 988 nM [sample B, mean of 2 tests] | TGI [9]: 160, 345, 92.9, 263 nM [sample A] and 165 nM [sample B] | TGI [10]: 899 nM [sample A, 1 test] and 4.57 µM, 658 nM [sample A, mean of 2 tests] and 1.57 µM [sample A, mean of 40 tests] and 1.79 µM [sample A, mean of 68 tests] and 1.66 µM [sample B, mean of 2 tests] | TGI [11]: > 5.01 µM [sample A, 1 test] and 351 nM, 371 nM, 132 nM [sample A, mean of 2 tests] and 341 nM [sample A, mean of 44 tests] and 416 nM [sample A, mean of 69 tests] and 240 nM [sample B, mean of 2 tests] | TGI [12]: 229 nM, 139 nM, > 5.01 µM [sample A, 1 test] and 299 nM [sample A, mean of 2 tests] and 206 nM [sample A, mean of 42 tests] and 320 nM [sample A, mean of 65 tests] and 242 nM [sample B, mean of 2 tests] | TGI [13]: 149 nM, > 5.01 µM [sample A, 1 test] and 256 nM, 234 nM [sample A, mean of 2 tests] and 2.2 µM [sample A, mean of 34 tests] and 1.59 µM [sample A, mean of 53 tests] and 2.4 µM [sample B, mean of 2 tests] | TGI [14]: 1.39 µM, 971 nM, 737 nM, 260 nM [sample A] and 477 nM [sample B] | TGI [15]: > 5.01 µM [sample A, 1 test] and 477 nM, 423 nM, 398 nM [sample A, mean of 2 tests] and 1.02 µM [sample A, mean of 38 tests] and 1.32 µM [sample A, mean of 70 tests] and 619 nM [sample B, mean of 2 tests] | TGI [16]: > 5.01 µM [sample A, 1 test] and 1.17 µM, 917 nM, 176 nM [sample A, mean of 2 tests] and 670 nM [sample A, mean of 41 tests] and 811 nM [sample A, mean of 63 tests] and 344 nM [sample B, mean of 2 tests] | TGI [17]: 1.52 µM, 2.37 µM, 3.14 µM, 3.52 µM, > 5.01 µM [sample A] and 2.57 µM [sample B] | GI50 [18]: > 5.01 µM [1 test] and 80 nM [mean of 34 tests] | TGI [18]: 431 nM, 254 nM, > 5.01 µM | TGI [19]: 266 nM, > 5.01 µM [sample A, 1 test] and 199 nM [sample A, mean of 2 tests] and 290 nM [sample A, mean of 40 tests] and 478 nM [sample A, mean of 63 tests] and 159 nM [sample B, mean of 2 tests] | TGI [20]: 166 nM, > 5.01 µM [sample A, 1 test] and 1.64 µM, 262 nM [sample A, mean of 2 tests] and 3.79 µM [sample A, mean of 36 tests] and 3.66 µM [sample A, mean of 71 tests] and 219 nM [sample B, 1 test] | GI50 [21]: > 5.01 µM [1 test] and 15.8 nM [mean of 37 tests] | TGI [21]: 511 nM, 350 nM, > 5.01 µM | TGI [22]: 3.93 µM, 7.18 µM [sample A, 1 test] and 1.74 µM, 1.88 µM [sample A, mean of 2 tests] and 1.76 µM [sample A, mean of 39 tests] and 3.07 µM [sample A, mean of 65 tests] and 2.45 µM [sample B, mean of 2 tests] | TGI [23]: 1.17 µM, > 5.01 µM [sample A, 1 test] and 624 nM, 516 nM [sample A, mean of 2 tests] and 739 nM [sample A, mean of 40 tests] and 1.07 µM [sample A, mean of 65 tests] and 10.3 µM [sample B, mean of 2 tests] | TGI [24]: 679 nM, > 5.01 µM [sample A, 1 test] and 1.89 µM [sample A, mean of 20 tests] and 1.74 µM [sample A, mean of 54 tests] and 3.91 µM [sample B, mean of 2 tests] | TGI [25]: 2.02, 2.42, 1.13, 1.23, 2.99, 6.25 µM [sample A] and 674 nM [sample B] | TGI [26]: 12.6 µM [sample A, 1 test] and 3.15 µM, 5.41 µM, 210 nM [sample A, mean of 2 tests] and 1.3 µM [sample A, mean of 41 tests] and 1.28 µM [sample A, mean of 68 tests] and 794 nM [sample B, mean of 2 tests] | TGI [27]: 380 nM, 310 nM, 31.2 nM, 204 nM, 5.12 µM [sample A] and 484 nM [sample B] | GI50 [28]: > 5.01 µM [1 test] and 87 nM [mean of 11 tests] | TGI [29]: > 5.01 µM [sample A, 1 test] and 600 nM, 167 nM, 412 nM [sample A, mean of 2 tests] and 614 nM [sample A, mean of 39 tests] and 772 nM [sample A, mean of 62 tests] and < 27.1 nM [sample B, mean of 2 tests] | TGI [30]: 1.75 µM, 1.18 µM, 1.05 µM, 913 nM, 15.5 µM [sample A] and 13.3 µM [sample B] | TGI [31]: 9.21 µM [sample A, 1 test] and 5.09 µM, 9.18 µM, 3.63 µM [sample A, mean of 2 tests] and 2.8 µM [sample A, mean of 36 tests] and 4.83 µM [sample A, mean of 64 tests] and 152 nM [sample B, 1 test]
